{"source": "PubChem BioAssay AID1347428", "about": "(National Center for Advancing Translational Sciences (NCATS), 2020)", "note": "The whole screen tested about 91,000 compounds, of which about 290 (0.32%) were called active. Inconclusive means that the source gave no clear call. Such entries were picked first, then a sample of the others. The call rests on the fitted dose curve; in most records, active means well fitted inhibition curve with a large enough effect; inconclusive means small, poorly fitted or top-dose-only effect; inactive means no such curve, though single readings can be large or run the other way. Potencies of inconclusive entries are doubtful fits and often do not repeat. On the % scale 0 is the no-effect control and ±100 the full control effect; potency means the concentration at half of the fitted maximal effect; tags describe the fitted curve by direction and shape."}
{"molecular_target": "Single-stranded DNA cytosine deaminase (Homo sapiens) (UniProt Q9GZX7)", "sequence (Q9GZX7 whole entry, looked up)": "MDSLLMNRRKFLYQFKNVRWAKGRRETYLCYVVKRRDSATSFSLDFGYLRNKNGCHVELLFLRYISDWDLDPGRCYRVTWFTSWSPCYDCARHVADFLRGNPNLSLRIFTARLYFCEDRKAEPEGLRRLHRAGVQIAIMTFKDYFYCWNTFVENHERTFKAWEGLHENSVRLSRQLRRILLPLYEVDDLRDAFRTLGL", "assay": "Primary qHTS assay for inhibitors of Activation Induced Cytidine Deaminase (AID): AID signal; further: nearly all actives have a fitted effect of over 25% in size", "conditions": "AID deamination FRET fluorescence, UDG-coupled, 4 h; activity change, negative = inhibition: at 115 µM (top of the series)"}
{"smiles": "Cc1ccc2nc(-c3ccc(F)cc3)c(NC(C)(C)CC(C)(C)C)n2c1", "Potency": "inconclusive: 79.4 µM [inhibitor, single point]"}
{"smiles": "CCc1cccc(NC(=O)CCc2c(C)nc3c(-c4ccccc4)c(C)nn3c2C)c1", "Potency": "inconclusive: 17.8 µM [inhibitor, full curve, poor fit]"}
{"smiles": "CN1CCN(Cc2c(O)ccc3cc(-c4ccc(Cl)cc4)c(=O)oc23)CC1", "Potency": "inconclusive: 39.8 µM [inhibitor, partial curve]"}
{"smiles": "Cc1ccc(C(=O)N2CCn3c4c(c5cc(C)ccc53)CCCC42)cc1", "note": "(configuration not stated)", "Potency": "inconclusive: 8.91 µM [inhibitor, full curve, poor fit]"}
{"smiles": "Cc1ccc(NC(=O)c2oc3c(c2C)-c2[nH]ncc2CC3)c(Cl)c1", "Potency": "inconclusive: 39.8 µM [inhibitor, full curve, poor fit]"}
{"smiles": "CCN(CC(=O)NC(C)C)Cc1nc(-c2cccs2)oc1C", "activity change, negative = inhibition": "inactive: 0.455%"}
{"smiles": "CCOc1cccc(CC(=O)N2CCc3c([nH]c4ccc(OC)cc34)C2c2ccc(F)cc2)c1OCC", "note": "(configuration not stated)", "Potency": "inconclusive: 10 µM [inhibitor, partial curve, poor fit]"}
{"smiles": "Cc1cccc(C(=O)N2CCc3cc(CNC(=O)CSc4ccccc4)ccc32)c1", "Potency": "inconclusive: 14.1 µM [inhibitor, full curve, poor fit]"}
{"smiles": "CCOc1ccc(C(=O)NCCSc2c(C)[nH]c3ccccc23)cc1OCC", "Potency": "inconclusive: 22.4 µM [inhibitor, partial curve, poor fit]"}
{"smiles": "CCOc1ccc(C(=O)NCC(c2cccs2)S(=O)(=O)c2ccccc2)cc1", "note": "(configuration not stated)", "Potency": "inconclusive: 44.7 µM [inhibitor, partial curve, poor fit]"}
{"smiles": "Cc1cc(C)c(NC(=O)Cn2c(=O)n(Cc3ccc(C(=O)NCc4ccc5c(c4)OCO5)cc3)c(=O)c3ccccc32)c(C)c1", "Potency": "inconclusive: 50.1 µM [inhibitor, partial curve, poor fit]"}
{"smiles": "Cc1ccc2c(c1)-c1c(c(C(=O)N3CCN(c4cc(C)ccc4C)CC3)nn1C)CS2", "Potency": "inconclusive: 20 µM [inhibitor, full curve, poor fit]"}
{"smiles": "COc1cccc(-n2c(SCc3ccc(F)cc3)nc3c([nH]c4ccccc43)c2=O)c1", "Potency": "inconclusive: 39.8 µM [inhibitor, single point]"}
{"smiles": "Cc1ccc(/C=C/C(=O)Nc2nc(-c3cccs3)ns2)cc1", "activity change, negative = inhibition": "inactive: 14.7%"}
{"smiles": "Cc1ccc(C)c(OCCn2c(C3CC(=O)N(Cc4ccc(F)cc4)C3)nc3ccccc32)c1", "note": "(configuration not stated)", "Potency": "active: 28.2 µM"}
{"smiles": "CCOC(=O)C1CCCN(c2nc3c(S(=O)(=O)c4ccc(Br)cc4)nnn3c3ccsc23)C1", "note": "(configuration not stated)", "Potency": "inconclusive: 7.08 µM [inhibitor, full curve, poor fit]"}
{"smiles": "CSc1ccc(C(C)NC(=O)C2CC=CCC2)cc1", "note": "(configuration not stated)", "activity change, negative = inhibition": "inactive: -1.6%"}
{"smiles": "COc1cc(OC)cc(C(=O)Nc2cc(-c3nc4ccccc4[nH]3)ccc2C)c1", "activity change, negative = inhibition": "inconclusive: -33.6% [inhibitor]"}
{"smiles": "CCCC[C@@]1(C2CCCC2)Cc2cc(OCC(=O)O)c(Cl)c(Cl)c2C1=O", "Potency": "inconclusive: 79.4 µM [inhibitor, partial curve, poor fit]"}
{"smiles": "O=C(c1ccco1)N1CCN(c2nc3c(F)cc(F)cc3s2)CC1", "Potency": "inconclusive: 17.8 µM [inhibitor, full curve, poor fit]"}
{"smiles": "Cc1[nH]c2cc3c(-c4ccccc4)cc(-c4ccccc4)nc3cc2c1C", "activity change, negative = inhibition": "inactive: 20.5%"}
{"smiles": "O=C(O)C/C(=C/c1cccc(Oc2ccc(Cl)cc2)c1)c1nc2ccccc2s1", "Potency": "inconclusive: 79.4 µM [inhibitor, partial curve, poor fit]"}
{"smiles": "COc1ccc(OC)c(NC(=O)c2ccc3c(SCC(=O)O)c4c(nc3c2)CCCC4)c1", "Potency": "inconclusive: 50.1 µM [inhibitor, partial curve, poor fit]"}
{"smiles": "Cn1cc(S(=O)(=O)N2CCCCCC2)cc1C(=O)N1CCN(c2cccc(C(F)(F)F)c2)CC1", "Potency": "inconclusive: 44.7 µM [inhibitor, partial curve, poor fit]"}
{"smiles": "Cc1cccc(C(=O)Nc2nc3nc(-c4ccccc4)cc(=O)n3[nH]2)c1", "Potency": "inconclusive: 50.1 µM [inhibitor, partial curve, poor fit]"}
{"smiles": "COc1ccc(OC)c(CCNC(=O)c2cc3cccc4c3n2CC(C)S4)c1", "note": "(configuration not stated)", "Potency": "inconclusive: 79.4 µM [inhibitor, partial curve, poor fit]"}
{"smiles": "Cn1c2ccccc2c2c(C(=O)N3CCN(c4cccc(Cl)c4)CC3)cn(C3CCCCC3)c(=O)c21", "Potency": "inconclusive: 28.2 µM [inhibitor, full curve]"}
{"smiles": "O=Cc1ccc(-c2cc(Cl)c(Cl)cc2Cl)o1", "activity change, negative = inhibition": "inactive: -4.63%"}
{"smiles": "Cc1ccc(-c2nc3c(c(SCC(=O)N(C)c4ccccc4)n2)Cc2c(CO)cnc(C)c2O3)cc1", "Potency": "inconclusive: 44.7 µM [inhibitor, partial curve, poor fit]"}
{"smiles": "CCN(CC)c1cc(C)c2cc(NC(=O)c3ccccc3Cl)ccc2n1", "Potency": "inconclusive: 31.6 µM [inhibitor, partial curve, poor fit]"}
{"smiles": "Nc1c(Cl)cc(NC(=O)c2cnc3ccccc3n2)cc1Cl", "Potency": "inconclusive: 44.7 µM [inhibitor, partial curve, poor fit]"}
{"smiles": "CC(C)(C)OC(=O)N1CCC(c2c(C(=O)NCCc3ccsc3)cnn2-c2ccccc2Cl)CC1", "Potency": "inconclusive: 56.2 µM [inhibitor, partial curve, poor fit]"}
{"smiles": "CCOc1ccc(CN2CCc3nc(N4CCN(c5ncccn5)CC4)ncc3C2)cc1OC", "Potency": "inconclusive: 100 µM [inhibitor, single point]"}
{"smiles": "CCc1nc2ccccc2n2c(-c3ccccc3)c3c(=O)n(C)c(=O)n(C)c3c12", "Potency": "inconclusive: 39.8 µM [inhibitor, single point]"}
{"smiles": "COc1ccccc1NC(=O)c1cc(=O)c(OCc2ccc(Cl)cc2)co1", "activity change, negative = inhibition": "inactive: -6.75%"}
{"smiles": "Cc1cc(-c2csc(Nc3ccc(O)cc3)n2)ccc1F", "activity change, negative = inhibition": "inactive: -8.04%"}
{"smiles": "CC(=O)N(c1nc(C)c(C(=O)Nc2ccc3cc[nH]c3c2)s1)C(C)C", "activity change, negative = inhibition": "inactive: 5.98%"}
{"smiles": "Cc1cccc(NC(=O)COC(=O)c2cc(C)nc3ccccc23)c1", "activity change, negative = inhibition": "inactive: 0.924%"}
{"smiles": "CCOC(=O)c1cnc2ccc(OCC)cc2c1N1CCN(c2cccc(Cl)c2)CC1", "Potency": "inconclusive: 39.8 µM [inhibitor, single point]"}
{"smiles": "Cc1cc2c(cc1NC(=O)c1ccc(C(C)(C)C)cc1)n(C)c(=O)c(=O)n2C", "Potency": "inconclusive: 39.8 µM [inhibitor, partial curve, poor fit]"}
{"smiles": "N#Cc1nc(Cc2ccccc2)oc1NCc1ccc(F)cc1", "activity change, negative = inhibition": "inactive: -14.6%"}
{"smiles": "O=C1OCCC1Sc1ccc2c(c1)OCCO2", "note": "(configuration not stated)", "activity change, negative = inhibition": "inactive: -5.28%"}
{"smiles": "Cc1ccc(C)c(CSc2c(C(C)C)cnc3c2c(=O)n(C)c(=O)n3C)c1", "Potency": "inconclusive: 50.1 µM [inhibitor, partial curve, poor fit]"}
{"smiles": "O=C(NCCc1ccc(Cl)cc1)c1cc2ccccc2oc1=O", "activity change, negative = inhibition": "inactive: 2.64%"}
{"smiles": "c1ccc(-c2nc(NCCN3CCOCC3)c3ccccc3n2)cc1", "activity change, negative = inhibition": "inactive: -8.04%"}
{"smiles": "Cc1cccc(C)c1NC(=O)C1CCCN(S(=O)(=O)c2c(C)noc2/C=C/N(C)C)C1", "note": "(configuration not stated)", "Potency": "inconclusive: 28.2 µM [inhibitor, partial curve, poor fit]"}
{"smiles": "COc1ccc(-n2ncc(C(=O)Nc3ccc(C)cc3Cl)c2C2CCN(C(=O)OC(C)(C)C)CC2)cc1", "Potency": "inconclusive: 28.2 µM [inhibitor, full curve, poor fit]"}
{"smiles": "O=C1NC(=O)C(c2ccccc2[N+](=O)[O-])=C1Nc1ccc(O)c(Cl)c1", "Potency": "inconclusive: 79.4 µM [inhibitor, partial curve, poor fit]"}
{"smiles": "CCCOc1c(Cl)cc(C2C3=C(CCCC3=O)OC3=C2C(=O)CCC3)cc1OCC", "Potency": "inconclusive: 56.2 µM [inhibitor, partial curve, poor fit]"}
{"smiles": "COc1ccc(Nc2oc(/C=C/c3ccc(F)cc3)nc2C#N)cc1", "Potency": "inconclusive: 10 µM [inhibitor, partial curve, poor fit]"}
{"smiles": "Cc1oc(-c2ccccc2F)nc1Cn1c(SCc2ccccc2F)nc2ccncc21", "Potency": "inconclusive: 31.6 µM [inhibitor, partial curve, poor fit]"}
{"smiles": "CCOCCCNCc1cccc(C)c1", "activity change, negative = inhibition": "inactive: 4.33%"}
{"smiles": "COc1ccccc1CNc1nc(-c2ccco2)nn1C(=O)c1ccccc1[N+](=O)[O-]", "Potency": "inconclusive: 100 µM [inhibitor, single point]"}
{"smiles": "O=C(CCC1CCCC1)NCc1ccncc1", "activity change, negative = inhibition": "inactive: -3.62%"}
{"smiles": "Cc1cc(OCCn2c(C3CC(=O)N(Cc4ccc(F)cc4)C3)nc3ccccc32)ccc1Cl", "note": "(configuration not stated)", "Potency": "inconclusive: 39.8 µM [inhibitor, partial curve]"}
{"smiles": "Cc1ccc(C)c(N2CCN(CCCNC(=O)Cn3c(-c4cccs4)cc4ccccc43)CC2)c1", "Potency": "inconclusive: 79.4 µM [inhibitor, single point]"}
{"smiles": "O=C(Nc1nc(C23CC4CC(CC(C4)C2)C3)cs1)c1ccncc1", "activity change, negative = inhibition": "inactive: 4.25%"}
{"smiles": "Cc1cc(N2CCCCC2)nc2ccc(NC(=O)CCC(=O)N3CCN(c4cccc(Cl)c4)CC3)cc12", "Potency": "inconclusive: 11.2 µM [inhibitor, full curve, poor fit]"}
{"smiles": "CCOc1ccc(CCNC(=O)c2ccc(Cn3c(=O)c4cccn4c4cccnc43)cc2)cc1", "Potency": "inconclusive: 70.8 µM [inhibitor, partial curve, poor fit]"}
{"smiles": "COc1cccc(C(=O)c2sc(Nc3ccc(C)cc3C)c(S(=O)(=O)c3ccccc3)c2N)c1", "Potency": "inconclusive: 28.2 µM [inhibitor, partial curve, poor fit]"}
{"smiles": "O=C(c1ccc2c(c1)N(Cc1ccccc1F)C(=O)c1ccccc1S2(=O)=O)N1CCCCCC1", "Potency": "inconclusive: 17.8 µM [inhibitor, full curve]"}
{"smiles": "CCOC(=O)c1ccc(N2C(=O)c3[nH]nc(-c4ccccc4)c3C2c2cccs2)cc1", "note": "(configuration not stated)", "Potency": "inconclusive: 89.1 µM [inhibitor, partial curve, poor fit]"}
